Results as given in PubChem BioAssay AID1508623 (National Center for Advancing Translational Sciences (NCATS), 2021).
Among all 48,000 compounds or so, about 450 (0.94%) were called active. Inconclusive results (about 19%) are left out. Calls come from the whole dose curve; as a rule, active = well fitted inhibition curve with a large enough effect; inconclusive = small, poorly fitted or top-dose-only effect; inactive = no such curve, though single readings can be large or run the other way. This is one part of the list.

Test: Primary qHTS for Identification of Small Molecule Inhibitors of Huntingtin Promoter Activity; note: nearly all actives have a fitted effect of over 50% in size
Settings: HEK293 HTT promoter firefly luciferase reporter (activity 0% = vehicle and -100% = no light), 24 h; series mostly up to 57.5 µM; activity change, negative = inhibition: at the top concentration
How it was run: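 HEK293 cells carrying firefly luciferase reporters were seeded at 2,500 per well in Opti-MEM and cultured for 24 h. They were then treated with compounds at up to 57.5 uM final for 24 h at 37 degrees C before Dual-Glo luminescence readout.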

Activity change, negative = inhibition, inactive:
CCCCN(CC)CCNC(=O)c1nn(-c2ccc(OC)cc2)c(=O)c2c1c1ccccc1n2C -14.8%, N#C/C(=C\c1ccccc1)c1nc(-c2cc3c(ccc4ccccc43)oc2=O)cs1 3.27%, CCOC(=O)c1cccc(NC(=O)Cn2cnc3nc4c(cc3c2=O)CCCC4)c1 -19.7%, CCN(CC)CCCNC(=O)c1ccc2c(c1)NC(=O)C(CS(=O)(=O)Cc1ccc(F)cc1Cl)N2 (stereo not drawn) 2.67%, COCCNC(=O)c1sc2nc3n(c(=O)c2c1C)CCC3 6.2%, COc1ccc(N2CC(c3nc(-c4ccccc4C)no3)CC2=O)cc1Cl (stereo not drawn) -3.39%, CCNC(=O)NCCCOc1cccc(CN2CCCCC2)c1 -12.8%, COC(=O)c1ccc(NC(=O)C(c2ccccc2)N2Cc3ccccc3C2=O)cc1 (stereo not drawn) -9.42%, Cc1cccc(CCNC(=O)CCc2c(C)nc3c(-c4ccc(F)cc4)c(C)nn3c2C)c1 -14.8%, Cc1nc(-c2ccc(Cl)cc2)sc1CCNC(=O)C(=O)Nc1ccccc1C#N -25.5%, COc1ccc(N2CCN(C(=O)c3cc4c(s3)-c3c(C)cccc3OC4)CC2)cc1 -0.507%, Cc1cc(C)cc(NC(=O)C2CCCN(c3nnc(-n4c(C)ccc4C)s3)C2)c1 (stereo not drawn) -20.7%, CCCc1ccc(OC(=O)c2sc3ncn(Cc4cccc(F)c4)c(=O)c3c2C)cc1 -19.2% [at 11.5 µM], COc1ccc(NC(=O)Cn2c(SCc3c(F)cccc3Cl)nc3ccncc32)cc1OC -6.74%, COCCn1c(SCC(=O)Nc2ccc(Br)cc2)nc2c([nH]c3ccccc32)c1=O -2.76%, CCCCN(C(=O)Nc1ccc(OCC)cc1)C1CCN(C(C)=O)CC1 4.63%, COC(=O)/C=C(/C)N 18%, COc1ccccc1CSc1nc2n(n1)C(c1ccccc1)C(C(=O)Nc1ccc(C)cc1)=C(C)N2 (stereo not drawn) -27.3%, Cc1ccc(NC(=O)C2CCCN(S(=O)(=O)c3ccc(C)cc3)C2)cc1 (stereo not drawn) -9.34%, COc1ccc(NC(=O)Cn2ncc3c4ccccc4n(Cc4ccccc4)c3c2=O)cc1OC 16.5%, COc1ccccc1-c1ncnn1-c1sc2c(c1C#N)CCCCC2 3.79%, Cc1ccc(NC(=O)Cn2nc(-c3ccc(Cl)cc3)c3ccccc3c2=O)cc1 -11.4%, NNCCc1ccccc1, Cc1c(Cl)cccc1NC(=O)CCS(=O)(=O)c1cccc2nsnc12 -8.27%, COc1ccc(OC)c(S(=O)(=O)NCCc2sc(C)nc2C)c1 -14.2%, Cc1cccc(COc2ccc(-c3cc(C(F)(F)F)n4nc(C)cc4n3)cc2)c1 3.41%, Cc1ccc(CNC(=O)CCN2C(=O)C(C)Oc3ccc(C)cc32)cc1 (stereo not drawn) -21.8%, CCc1ccc(-c2nc3cc(NC(=O)c4ccc(F)cc4)ccc3o2)cc1 -5.42%
